PubChem BioAssay (NCI)
Several values for one entry are separate records, joined by “and”; a condition that tells them apart may be missing. Identical values can stand only once.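 Five concentrations, 48 hours, 96-well plates. Abbreviation: GI50, concentration required for 50% inhibition of growth. TGI marks complete inhibition of growth.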 Bridge positions count the residues as written; N and C are the ends. Peptide text beside a SMILES is read from it. * marks the point of attachment. Cbz = O=C(OCc1ccccc1)*

test system: NCI-H322M lung; assay: inhibition of tumour cell growth, NCI panel, 48 h

Row | Compound | TGI | GI50 [µM]
1 | CN(C)CCNc1ccc(NCC[N+](C)(C)Cc2ccc([N+](=O)[O-])cc2)c2c1C(=O)c1c(O)ccc(O)c1C2=O | > 100 µM | –
2 | NC(N)NCCCc1cn2c(n1)C1CCCN1C(=O)C2Cc1ccccc1 (configuration not stated) | > 100 µM | –
3 | CCCCCCCCCCCCCCCCOCC(COP(=O)(O)OCC1OC(n2cc(CC)c(=O)[nH]c2=O)CC1O)OC(=O)CCCCCCCCCCCCCCC (configuration not stated) | > 100 µM | –
4 | O=C(O)CN1CCSc2ccccc2CN(CC(=O)O)CCSc2ccccc2C1 | > 100 µM | –
5 | COc1ccc2c(-c3csc(-c4c[nH]c5ccc(Br)cc45)n3)c[nH]c2c1 | > 100 µM | –
6 | Cc1c(Cl)cccc1C(=O)Nc1nc2c(s1)CN(C(=O)Nc1cccc(C(F)(F)F)c1)CC2 | > 50 µM | 0.315
7 | Cc1cc(I)cc(CNCCN(C)C)c1O | > 100 µM | > 100
8 | COCCN(C(=O)c1ccccc1)C1CCC2(SCCS2)c2[nH]c3ccccc3c21 (configuration not stated) | > 100 µM | –
9 | CN(Cc1cnc2nc(N)nc(N)c2n1)c1ccc(C(=O)NCCCS(=O)(=O)O)cc1 | > 100 µM | –
10 | O=C1C(Cl)C(c2cccc([N+](=O)[O-])c2)N1n1cnc2ccccc2c1=O (configuration not stated) | > 100 µM | –
11 | COc1ccc(-c2cc(N3CCN(c4ccc(Cl)cc4)CC3)c(C#N)c(=O)o2)cc1 | 3.06 µM | –
12 | Cc1cn2cc(-c3cccs3)nc2s1 | > 100 µM | –
13 | C=CCc1cccc(C=O)c1O | > 100 µM | > 100
14 | CN1CCN(c2cc3[nH]c4cc(O)cc(O)c4c(=O)c3cc2N)CC1 | 74.5 µM | –
15 | CNC(=O)Oc1cc(C(C)C)ccc1Sc1ccc(C(C)C)cc1OC(=O)NC | 25 µM | 11.7
16 | O=C(O)/C=C\C(=O)Nc1ccc2c(c1)-c1ccccc1C2 | > 100 µM | –
17 | C#CCOC(=O)C(N)CC(N)=O (configuration not stated) | > 100 µM | –
18 | O=S(=O)(NCCCNc1cc(-c2cn(-c3ccccc3)nc2-c2cccc(O)c2)ccn1)c1ccc(C(F)(F)F)cc1 | 9.23 µM | 2.94
19 | COc1nc(NC2OC(COC(C)=O)C(OC(C)=O)C(OC(C)=O)C2OC(C)=O)c(N=CC=Nc2c(NC3OC(COC(C)=O)C(OC(C)=O)C(OC(C)=O)C3OC(C)=O)nc(OC)[nH]c2=O)c(=O)[nH]1 (configuration not stated) | > 100 µM | –
20 | Cc1ccc(S(=O)c2ccccc2[N+](=O)[O-])cc1 (configuration not stated) | > 100 µM | –
21 | C=CC(=O)NCCC(=O)OCn1cc(F)c(=O)[nH]c1=O | > 100 µM | –
22 | CC(C)[Si](OC12CCC(CC1O)CC2CO)(C(C)C)C(C)C (configuration not stated) | 25.9 µM | –
23 | O=C1CSCC(=O)Nc2ccccc2N1 | > 100 µM | –
24 | CN(C)CCC(N)(P(=O)([O-])[O-])P(=O)([O-])[O-].N.N.[Pt+2] | > 100 µM | > 100

Row | Compound | TGI | GI50 [µM]
25 | Clc1ccc(Cc2nc3ccccc3o2)cc1 | > 100 µM | –
26 | Sc1cccc2cccnc12 | 11.9 µM | 1.49
27 | O=C(O)/C=C/c1ccc(O)c(O)c1 | > 100 µM | –
28 | COc1cccc2c1C(=O)c1c(O)c3c(c(O)c1C2=O)C[C@@](O)(C(=O)CO)CC3OC1CC(N(C)CCOCC(OC(C)=O)OC(C)=O)C(O)C(C)O1 (some centres not stated) | > 0.01 µM | –
29 | CNC(=O)C1CCCCNC(=O)CCC(NC(=O)OCc2ccccc2)C(=O)N1 (stereo not drawn) (Cbz-Glu-Lys-NHMe; lactam 1-2; configuration not given here) | > 100 µM | –
30 | COc1ccc(-c2nc3sc(-c4cc(OC)c(OC)c(OC)c4)nn3c2/C=C2/C(=O)Nc3ccc(F)cc32)cc1 | 7.99 µM | 2.74
31 | CC[C@@H]1/C=C/C=C/C[C@H](C)[C@@H](O)[C@@H](C)C(=O)[C@H](C)[C@@H](O)[C@H](C)C(=O)[C@H](C)[C@@H](O)[C@H](C)/C=C/C(=O)O[C@H]2[C@@H](C)[C@@H](CC1)O[C@@]1(CC[C@@H](C)[C@@H](CC(C)O)O1)[C@@H]2C (some centres not stated) | > 25 µM | –
32 | CC(=O)N1C=Cc2c(c(C)c3c([nH]c4ccccc43)c2C)C1 | 21.2 µM | –
33 | CC(=O)OCC1OC(n2c3c(c(-c4ccc(C)cc4)c(C#N)c2=S)C(=O)CC(C)(C)C3)C(OC(C)=O)C(OC(C)=O)C1OC(C)=O (configuration not stated) | > 100 µM | –
34 | COC(=O)c1c2c(c(C)[n+]([O-])c1C)C(=O)C(NCc1ccc(OC)cc1)=CC2=O | 6.29 µM | 2.05
35 | CCN(CC)C(=O)CCn1ccc(=O)[nH]c1=O | > 100 µM | –
36 | CCCN(CCC)C(=S)Sc1nc(C)nc(N2CCN(c3nc(C)nc(SC(=S)N(CCC)CCC)c3[N+](=O)[O-])CC2)c1[N+](=O)[O-] | > 95.6 µM | –
37 | NS(=O)(=O)c1ccc(NC(=S)NC(=O)Nc2ccc(Cl)c(Cl)c2)cc1 | 38.8 µM | –
38 | O=C(CNc1ccccc1[N+](=O)[O-])Nn1cnc2ccc(S(=O)(=O)Nc3ccccc3[N+](=O)[O-])cc2c1=O | > 100 µM | –
39 | CCOC(=O)c1noc2c1CCc1c-2cn(Cc2ccc(OC)cc2)c1-c1cc(OC)c(OC)c(OC)c1 | > 100 µM | 5.47
40 | N=c1sc2ccccc2n1CCS (tested in a mixture with another compound) | 41.9 µM | –
41 | O=C(N/N=C/c1ccc(Cl)cc1)c1ccc(NC(=O)c2ccccn2)cc1 | > 100 µM | 26.3
42 | Brc1ccc(C2=NCSC(c3ccc(Br)cc3)=N2)cc1 | 92.4 µM | –
43 | C/C(=N/NC(=O)c1ccccc1S(N)(=O)=O)C(CN1CCCCC1)C(C1=C(O)C2C=CC=CC2OC1=O)c1ccccc1 (configuration not stated) | > 100 µM | –
44 | COc1cccc(OC)c1C1ON=C(c2ccccc2)N1C12CC3CC(CC(C3)C1)C2 (configuration not stated) | > 100 µM | –
45 | COC1=C(C(c2cc(OC)c(OC)c(OC)c2)c2cc3c(cc2OC)OCO3)C(=O)OC1 (configuration not stated) | > 86 µM | –
46 | COc1cc2c(c3oc(-c4ccc(O)cc4)c(O)c(=O)c13)CCC(C)(C)O2 | > 100 µM | 0.37
47 | O=c1[nH]c2ccccc2n1C1CCNCC1 | > 100 µM | > 100
48 | COc1cc2cc(NCc3cccc(Cl)c3)nc(C)c2cc1OC | 29.8 µM | 1.42

Row | Compound | TGI | GI50 [µM]
49 | COc1cc(CN=c2nc(N(C)C)ss2)cc(OC)c1OC | > 10 µM | –
50 | COC(=O)[C@@H](C)C[C@H](Cc1ccccc1)NC(=O)c1nc([C@@H](C[C@H](C(C)C)N(C)C(=O)[C@@H](NC(=O)[C@H]2C[C@H](O)CCN2C)C(C)C)OC(C)=O)sc1C(C)C | > 11.1 µM | 0.037
51 | Cc1ccc(-c2n[nH]c(=O)n2/N=C\c2ccccc2O)cc1 | > 100 µM | –
52 | O=C1c2cc(Br)ccc2-c2ccc3c4ccc5c6c(ccc(c7ccc1c2c73)c64)C(=O)c1cc(Br)ccc1-5 | > 100 µM | –
53 | O=C(O)c1ccc(N(/C=C/C(=O)C(F)(F)F)Cc2ccc(Cl)cc2)cc1 | 89.4 µM | 32.9
54 | Nc1ccc(/C=C/c2ccc3ncccc3c2)cc1 | > 100 µM | > 100
55 | NC(N)=N/N=C/c1c(-c2ccccc2[N+](=O)[O-])nc2sccn12 | > 100 µM | –
56 | O=C1C2C3C4C1C1C2[C@H](OCc2ccccc2)C3C1[C@H]4OCc1ccccc1 (some centres not stated) | > 100 µM | –
57 | O=C(O)C(Cc1cc(I)c(O)c(I)c1)C1CCCCC1 (configuration not stated) | > 100 µM | –
58 | CC1(OCc2ccccc2)C(=O)N2C1NCC2(C)C (configuration not stated) | > 100 µM | –
59 | COc1cc2nc(-c3cccs3)nc(Nc3cccc([N+](=O)[O-])c3)c2cc1OC | 41.6 µM | –
60 | CN1C2CCC1/C(=C/c1cccc3c1OCO3)C(=O)/C2=C\c1cccc2c1OCO2 | > 100 µM | –
61 | O=c1[nH]c(=S)[nH]cc1CN1CCOCC1 | > 100 µM | –
62 | COC(=O)N[C@H]1CCc2cc(OC)c(OC)c(OC)c2-c2ccc(SC)c(=O)cc21 | > 100 µM | < 0.01
63 | O=[N+]([O-])c1ccc(C2=NCCO2)cc1 | > 100 µM | > 100
64 | Cc1cc(N(CCC#N)CCC#N)ccc1/C=C(\NC(=O)/C=C/c1ccccc1)C(=O)N=[N+]=[N-] | > 100 µM | –
65 | O=C(Cc1ccccc1)NN1C(=O)C(Cl)C1c1ccc(Cl)cc1 (configuration not stated) | > 100 µM | –
66 | COc1cc(/C=C2\CC3C4CC=C5CC(OC(C)=O)CC[C@]5(C)C4CC[C@]3(C)C2=O)ccc1OCCN1CCCC1 (some centres not stated) | 18.9 µM | 3.13
67 | Cn1ncnc1[C@@H]1c2n[nH]c(=O)c3cc(F)cc(c23)N[C@H]1c1ccc(F)cc1 | > 100 µM | > 100
68 | Cc1ccc(N)c(S)c1 | 52.6 µM | –
69 | CC1(C)N=C(N)N=C(N)N1c1ccc(OCCCNC(=O)Nc2ccc(S(=O)(=O)F)cc2)c(Cl)c1 | > 100 µM | 1.87
70 | CC(C#N)(c1ccccc1)N(CCc1ccccc1)C(=O)Oc1ccccc1 (configuration not stated) | > 100 µM | –
71 | N#Cc1cc2c(cc1C#N)SCCSCCCSCCS2 | > 82.4 µM | –
72 | CC[C@@]1(OP(=O)(O)O)C(=O)OCc2c1cc1n(c2=O)Cc2cc3ccccc3nc2-1 | 5.56 µM and 4.97 µM | 1.29

Row | Compound | TGI | GI50 [µM]
73 | Cn1cc(C2=C(c3ccsc3)C(=O)NC2=O)c2ccccc21 | > 25 µM | > 25
74 | O=S1OC(c2ccccc2)(c2ccccc2)C(c2ccccc2)(c2ccccc2)O1 | > 100 µM | –
75 | O=C(O)c1ccccc1CN1CCCC(C(=O)O)C1 (configuration not stated) | > 100 µM | –
76 | CC(=O)OC(C)(C)C1CC[C@]2(C)/C=C/C(C)C[C@@H](O)/C=C(\C)CC(O)C12 (some centres not stated) | > 100 µM | –
77 | C=C(CO)C(=O)OC1CC(=C)C2CC(O)C(C)C2C2OC(=O)C(=C)C12 (configuration not stated) | > 100 µM | –
78 | COc1ccc(/C=C/C(=O)c2cc(OC)cc(OC)c2)cc1 | 16.5 µM | –
79 | CC(C)OC(=O)NCCn1cc(-c2ccccc2)nn1 | > 100 µM | –
80 | C=CCN1C(=O)CC2[C@@H]3CCc4cc(O)ccc4C3CC[C@]2(C)C1=O (some centres not stated) | > 10 µM | –
81 | O=P1(NCCCl)OCCCN1CCCl (configuration not stated) | 445 µM | –
82 | O=c1c2ccccc2nc(-c2cccc([N+](=O)[O-])c2)n1O | > 100 µM | –
83 | CC(C)=CCc1cc2c(cc1O)C1=C(C(=O)C3=C(NCCS3(=O)=O)C1=O)C(C=C(C)C)O2 (configuration not stated) | 14.9 µM | 4.45
84 | CC(=O)OCC1C(=O)OCC1C(=O)N1Cc2cc3ccccc3nc2C1 (configuration not stated) | 30.4 µM | –
85 | Clc1ccc(OCC2NC3CCC2CC3)cn1 (configuration not stated) | > 100 µM | –
86 | C/C(=C\C(=O)O[C@H]1[C@@H]2[C@H](C)CC[C@H]2[C@]2(C)O[C@@]1(C1CCCCC1)C[C@H]2OC(=O)CO)c1ccccc1 | 12.8 µM | 7.11
87 | CC(C)(C)N(Cc1ccccc1)C(=O)/C=C\S(=O)c1ccccc1 (configuration not stated) | 26.8 µM | –
88 | CCN1CCN(CCC(=O)Nc2cccc(-n3cc(-c4ccncc4)c(-c4ccc(Cl)c(OC)c4)n3)c2)CC1 | 4.37 µM | 0.855
89 | O=c1nc2n(-c3cccc(Cl)c3)c3ccc([N+](=O)[O-])cc3cc-2c(=O)[nH]1 | 19.7 µM | 8.32
90 | Cc1ccc2c(c1C)C(=O)C1(C2)Cc2ccc3c(c2C1=O)CCC3 (configuration not stated) | > 100 µM | –
91 | CCOC(=O)CC1=N/C(=N/C(=N)N[N+](=O)[O-])SC1 | > 100 µM | –
92 | CC1=C(O)C(=O)C=C2C1=CC=C1[C@@]2(C)CC[C@@]2(C)C3C[C@@H](C)C(=O)[C@@H](O)[C@]3(C)CC[C@]12C (some centres not stated) | 27.1 µM | –
93 | N#CC1=C(N)Oc2c(sc3c(Br)cccc23)C1c1ccc([N+](=O)[O-])cc1 (configuration not stated) | 19 µM | 2.51
